Measurements taken from paper PMC4336329 (PLoS ONE, 2015).
The campaign covered roughly 310,000 compounds. About 2,200 (0.71%) showed an effect of 50% or more. Effects have a minus sign here. Some of the results follow.

biological target: human ether-à-go-go-related gene (hERG) potassium channel (human, UniProt Q12809); test: primary screen, population patch clamp on CHO cells stably expressing hERG
Sequence (Q12809 whole entry, looked up): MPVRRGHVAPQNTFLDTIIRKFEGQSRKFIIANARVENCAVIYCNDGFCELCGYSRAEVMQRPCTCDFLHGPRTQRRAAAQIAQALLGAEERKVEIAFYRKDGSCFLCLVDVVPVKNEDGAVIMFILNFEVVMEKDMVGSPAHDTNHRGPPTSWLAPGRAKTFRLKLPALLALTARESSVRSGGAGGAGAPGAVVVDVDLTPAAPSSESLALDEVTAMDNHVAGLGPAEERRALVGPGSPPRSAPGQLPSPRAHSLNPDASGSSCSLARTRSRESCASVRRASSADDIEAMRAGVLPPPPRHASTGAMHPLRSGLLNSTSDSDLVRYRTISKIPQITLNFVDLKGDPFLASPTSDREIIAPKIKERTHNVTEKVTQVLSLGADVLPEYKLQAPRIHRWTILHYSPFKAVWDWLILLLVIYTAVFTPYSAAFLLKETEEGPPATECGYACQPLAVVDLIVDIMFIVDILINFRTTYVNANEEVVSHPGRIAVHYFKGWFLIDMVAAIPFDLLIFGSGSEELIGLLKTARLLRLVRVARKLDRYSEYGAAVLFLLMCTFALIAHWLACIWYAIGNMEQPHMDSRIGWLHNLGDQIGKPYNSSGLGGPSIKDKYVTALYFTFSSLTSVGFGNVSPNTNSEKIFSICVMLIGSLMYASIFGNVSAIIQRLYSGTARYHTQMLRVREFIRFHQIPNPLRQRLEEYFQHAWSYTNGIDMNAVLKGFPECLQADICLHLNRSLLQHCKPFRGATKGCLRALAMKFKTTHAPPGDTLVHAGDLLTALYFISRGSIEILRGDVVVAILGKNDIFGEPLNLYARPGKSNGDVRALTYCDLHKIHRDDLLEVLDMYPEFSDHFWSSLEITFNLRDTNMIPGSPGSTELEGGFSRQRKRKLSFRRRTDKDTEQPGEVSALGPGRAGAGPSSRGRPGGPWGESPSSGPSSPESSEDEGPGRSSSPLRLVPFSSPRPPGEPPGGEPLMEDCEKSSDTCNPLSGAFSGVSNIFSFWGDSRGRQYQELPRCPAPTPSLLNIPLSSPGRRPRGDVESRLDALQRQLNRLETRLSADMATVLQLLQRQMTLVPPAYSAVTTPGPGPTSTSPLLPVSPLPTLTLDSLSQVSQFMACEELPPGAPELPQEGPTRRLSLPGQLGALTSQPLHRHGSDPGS

Row | Compound | hERG current change (%, negative = inhibition) at 1uM
1 | O=C(O)C1=C[C@H](c2ccc3c(c2)OCO3)C[C@H](OCc2ccc(CO)cc2)O1 | 9.9%
2 | O=C1C2CC=CCC2C(=O)N1c1ccc(NCCc2cccc(F)c2)c([N+](=O)[O-])c1 (stereo not drawn) | 6.69%
3 | c1ccc(CN(Cc2ccccc2)c2nn[nH]n2)cc1 | 6.98%
4 | O=C(CSc1ccc2nnc(CCNS(=O)(=O)c3ccccc3)n2n1)Nc1nc2ccccc2s1 | 10.5%
5 | CCCc1nc2nc(C)c(NS(=O)(=O)c3ccc(C(C)(C)C)cc3)c(=O)n2[nH]1 | 9.98%
6 | Cc1ccc(/C=N/NC(=O)c2cc(-c3cccnc3)nc3ccccc23)cc1 | 12.8%
7 | Cc1ccc2[nH]cc(C(=O)CN3CCN(c4ccccn4)CC3)c2c1 | 3.06%
8 | O=C(Nc1cccc2ccccc12)C1CCCC1 | 9.47%
9 | O=[N+]([O-])c1ccc(CSc2ccccn2)cc1 | 8.1%
10 | CCOC(=O)N1CCN(CCC(=O)Nc2ccc(C)c(Br)c2)CC1.Cl | -14.5%
11 | CC1=C(C#N)c2nc(N)c(C#N)c(C)c2/C1=C\c1ccc(C)cc1 | 11.6%
12 | CCOC(=O)C(C)(C)n1nnc(-c2ccc([N+](=O)[O-])cc2)n1 | 3.19%
13 | COc1ccccc1Oc1nc2ccccn2c(=O)c1/C=C(\C#N)C(=O)Nc1c(C)n(C)n(-c2ccccc2)c1=O | 12.1%
14 | Cc1nc(C(N)=O)nc2ccccc12 | 8.56%
15 | O=C(CSc1ncn[nH]1)N/N=C/c1ccc(Br)cc1 | 10.5%
16 | CCNCC(=O)N1c2ccccc2CCc2ccc(NC(=O)OCC)cc21 | 9.88%
17 | COc1ccc(C(=O)NCCS(=O)(=O)N2CCOCC2)cc1 | 10.3%
18 | NC(=O)c1c(NC(=O)CN2CCOCC2)sc2c1CCC2 | 11%
19 | Cc1ccsc1C(=O)N1CCCC(N(C)Cc2ccccc2)C1 (stereo not drawn) | 1.75%
20 | C=CCn1c(=N)c(C(=O)NCCCOC)cc2c(=O)n3ccccc3nc21 | -22.3%
21 | O=C(Cc1cccs1)NCc1ccncc1 | 3.43%
22 | CCCN(CCC)CCNC(=O)C1CC(=O)N(c2ccc(OC)cc2)C1c1ccc(OC)cc1 (stereo not drawn) | -18.1%
23 | COc1ccc(N(CC(=O)NCc2cccnc2)S(=O)(=O)c2c(C)nn(C)c2C)cc1 | 16.5%

Row | Compound | hERG current change (%, negative = inhibition) at 1uM
24 | CCOC(=O)N1CCN(C(=O)CCNS(=O)(=O)c2ccccc2)CC1 | 10.9%
25 | O=C(Cc1ccc(N2CCNC2=O)cc1)N1CCCC(Nc2cccc(F)c2)C1 (stereo not drawn) | 11.6%
26 | Cc1oc(-c2ccc(Cl)cc2)nc1CS(=O)CC(=O)NC1CC1 (stereo not drawn) | 14.6%
27 | O=C(O)c1cc(S(=O)(=O)N(Cc2ccccc2)c2cccc(C(F)(F)F)c2)ccc1Cl | 13.9%
28 | CC(C)C[C@@H](CO)N1CCN(Cc2ccc(Br)cc2)CCC1=O | 4.05%
29 | COc1ccc([C@H]2/C=C\CN(S(=O)(=O)c3cccc4cccnc34)[C@@H](C)C(=O)N2Cc2ccc(F)cc2)cc1 | 5.13%
30 | O=C(NC(O)C(=O)c1ccccc1)c1cccs1 (stereo not drawn) | 12.3%
31 | CCOC(=O)CSc1nnc(CNc2nc(-c3ccccc3)cs2)n1C | -8.88%
32 | O=c1[nH]c2ccccc2cc1CN(c1ccccc1)S(=O)(=O)c1ccccc1 | 6.79%
33 | CCN(c1ccccc1)S(=O)(=O)c1ccc(F)cc1 | 8.48%
34 | CCN(Cc1nc2ccccc2c(=O)[nH]1)C(=O)c1cc2c(s1)CCCCC2 | 18.4%
35 | CN(C)C(=O)Nc1cccc(OC(=O)N(C)C)c1 | 15%
36 | CC1(C)C(C(=O)OCC(Cl)(Cl)Cl)N2C(=O)C(NC(=O)Cc3ccccc3)C2S1=O (stereo not drawn) | 8.85%
37 | Cc1cc([P+](=O)O)c(C)n1-c1ccc(Br)cc1 | 16.1%
38 | COCCN(C(=O)c1csnn1)C(C(=O)NC1CCCC1)c1ccccc1 (stereo not drawn) | 11.2%
39 | C=CCSc1ncnc2c1oc1nc3c(cc12)COC(C)(C)C3 | 14.1%
40 | CC1Cc2ccccc2N1C(=O)c1ccnc(C(C)(C)C)c1 (stereo not drawn) | 17.6%
41 | CCOC(=O)CNC(=O)c1ccc2[nH]c3c(c2c1)CCCC3 | 14.5%
42 | Cl.Clc1cccc(NC2=NCCC2)c1 | 8.75%
43 | COc1ccc(C(=O)N(C)C2CCCN(Cc3ccccc3F)C2)cc1C (stereo not drawn) | 7.63%
44 | O=C(Nc1ccc(F)cc1F)c1csc(-c2ccccc2)n1 | 3.26%
45 | CCN(CC)Cc1nc2c(c(=O)[nH]1)C1(CCCCC1)Cc1ccccc1-2 | 12%
46 | Cc1scc(C(=O)NNC(=O)CCC(=O)O)c1C | 6.37%

Row | Compound | hERG current change (%, negative = inhibition) at 1uM
47 | CC(=NCCc1ccccc1)C1=C(O)COC1=O | 8.33%
48 | COc1ccc(/C=N/OCC(=O)Nn2c(C)nc3ccccc3c2=O)cc1 | 2.25%
49 | Cc1nc2ccc(Cl)cc2nc(C)/c1=N\O | 10%
50 | CC(C)C(=O)Nc1ccc(C(=O)Nc2ccc(S(=O)(=O)N3CCOCC3)cc2)cc1 | 12.4%
51 | COc1ccc(C(Nc2ccccn2)c2c(NC(=O)c3ccco3)sc(C)c2C)cc1OC (stereo not drawn) | 7.04%
52 | COc1ccc(C2=NN(C(=O)CN3CCCCC3)C(c3ccc(C)cc3)C2)cc1 (stereo not drawn) | -33%
53 | O=C(NNS(=O)(=O)c1ccc(F)cc1)c1ccc([N+](=O)[O-])cc1 | 14.2%
54 | CN(CCc1ccccn1)C(=O)CC1C(=O)NCCN1Cc1ccc(-c2ccccc2)cc1 (stereo not drawn) | 5.5%
55 | Cc1ccc(-n2c(SCC(=O)NCCN3C(=O)CSC3=O)nnc2-c2ccccc2)cc1 | 27%
56 | CC(C)n1ncc2c(C(=O)NCC(=O)Nc3ccccc3Br)cc(C3CC3)nc21 | 2.02%
57 | CCOC(=O)c1[nH]c(C)c(C(=O)NC2CCCC2)c1C | 0.699%
58 | Cc1nc(N2CCOCC2)nc(N2CCCCC2C)c1[N+](=O)[O-] (stereo not drawn) | 9.24%
59 | NNC(=O)c1ccc2c(c1)S(=O)(=O)NNC2=O | 7.07%
60 | COc1ccc(OC)c(N2C(=O)/C(=C/c3ccco3)C(=O)NC2=S)c1 | 14.1%
61 | COc1cc(SC)ccc1C(=O)N(Cc1ccccc1)c1ccccc1 | 14%
62 | Cc1nn(-c2ccc(N3CCCCC3)nn2)c(C)c1CCC(=O)Nc1cc(F)ccc1F | 10.2%
63 | O=C(NC(=S)NCc1ccncc1)c1ccccc1 | 10.3%
64 | Cc1cccc(OCC(=O)NNC(=O)c2ccccc2OCc2c(C)noc2C)c1 | -0.118%
65 | CC(C)C1=NN2C(=N)CC(=O)N=C2S1 | 9.22%
66 | Br.CN1CCN(c2nc(-c3cccs3)cs2)CC1 | 4.91%
67 | COc1ccc(C(=O)NCC(=O)OCc2ccc(F)cc2Cl)cc1OC | 11.2%
68 | CC(C)c1ccc(C2CC(=O)N3CN(C)CSC3=C2C#N)cc1 (stereo not drawn) | 4.51%
69 | O=C(NCCCl)Nc1cc([N+](=O)[O-])ccc1Cl | 9.43%

Row | Compound | hERG current change (%, negative = inhibition) at 1uM
70 | CN(C)/C=N/c1cc(=O)n(Cc2ccccc2)c(=O)n1C | 4.2%
71 | CCN1CCN(c2cc(=O)n3ccccc3n2)CC1 | 16.5%
72 | CN(NC(=O)c1ccccc1F)c1ncccc1[N+](=O)[O-] | 14.1%
73 | Cc1ccccc1OCC(=O)NNC(=O)Nc1ccccc1 | 9.56%
74 | Cc1ccc(S(=O)(=O)Nc2ccccc2F)cc1C(=O)NNC(=O)c1csc(N2CCOCC2)n1 | 6%
75 | O=C(NCc1ccc2c(c1)OCO2)c1ccc2c(c1)C(=O)N(CC1CCCO1)C2=O (stereo not drawn) | 6.29%
76 | COc1ccccc1Oc1cc(C#N)c(C#N)cc1-n1nnc2ccccc21 | 0.887%
77 | O=C(NCc1ccncc1)c1ccc2nc(Cc3ccccc3F)oc2c1 | 8.99%
78 | CCc1ccc(NC(=O)CS(=O)CC(=O)Nc2ccc(N3CCOCC3)cc2)cc1 (stereo not drawn) | 3.75%
79 | Cc1nc2scc(C)n2c(=O)c1S(=O)(=O)Nc1ccc(OC(F)(F)F)cc1 | 17.5%
80 | Cc1ccc(-n2ncc3c(NCc4cccnc4)ncnc32)c(C)c1 | -4.19%
81 | CC(C)(C)OC(=O)NCCCCCC(=O)N/N=C/c1coc2ccccc2c1=O | -0.635%
82 | COCc1c(C(=O)OCC(=O)NCCc2ccc(S(N)(=O)=O)cc2)oc2ccccc12 | 5.78%
83 | Cc1cc(C(=O)NNC(=S)NC2CCCCC2)cs1 | 6.05%
84 | O=C(CN1C(=O)c2ccccc2C1=O)Nc1cccc(O)c1 | 13%
85 | CCN(CC)S(=O)(=O)c1ccc(Cl)c(NC(=O)COC(=O)/C=C/c2cc(OC)c(OC)c(OC)c2)c1 | 11.4%
86 | COc1cc(C)cc(OC)c1OCC(=O)Nc1cc(C)on1 | 21.5%
87 | COC(=O)c1c(-c2cc(C)ccc2C)csc1NC(=O)C1CC=CCC1C(=O)O (stereo not drawn) | -7.42%
88 | CN(C)P(=O)(C(Cl)=C(N1CCCCC1)N1CCCCC1)N(C)C | 6.95%
89 | c1ccn2c(c1)nc1c2nc2ccccn21 | 13.2%
90 | CC(C)Cc1ccc(CN2CCCC(NC(=O)Cn3cnnn3)C2)cc1 (stereo not drawn) | -3.42%
